Source: the supplement of paper PMC3334620
In all, about 33,000 sequences were measured (“E-score (-0.5 to 0.5)”: median about -0.021, highest 2% from about 0.32 on). The list shows a part of the results.

Each sequence was assayed against T1, Zap1 (UniProt P47043) (assay: PBM E-score (8-mer binding enrichment) (E-score (-0.5 to 0.5)); higher = stronger / more preferred TF binding; most listed sequences are background and not binding sites). Details: protein concentration: 200 nM; construct: GST-full length.
T1 sequence: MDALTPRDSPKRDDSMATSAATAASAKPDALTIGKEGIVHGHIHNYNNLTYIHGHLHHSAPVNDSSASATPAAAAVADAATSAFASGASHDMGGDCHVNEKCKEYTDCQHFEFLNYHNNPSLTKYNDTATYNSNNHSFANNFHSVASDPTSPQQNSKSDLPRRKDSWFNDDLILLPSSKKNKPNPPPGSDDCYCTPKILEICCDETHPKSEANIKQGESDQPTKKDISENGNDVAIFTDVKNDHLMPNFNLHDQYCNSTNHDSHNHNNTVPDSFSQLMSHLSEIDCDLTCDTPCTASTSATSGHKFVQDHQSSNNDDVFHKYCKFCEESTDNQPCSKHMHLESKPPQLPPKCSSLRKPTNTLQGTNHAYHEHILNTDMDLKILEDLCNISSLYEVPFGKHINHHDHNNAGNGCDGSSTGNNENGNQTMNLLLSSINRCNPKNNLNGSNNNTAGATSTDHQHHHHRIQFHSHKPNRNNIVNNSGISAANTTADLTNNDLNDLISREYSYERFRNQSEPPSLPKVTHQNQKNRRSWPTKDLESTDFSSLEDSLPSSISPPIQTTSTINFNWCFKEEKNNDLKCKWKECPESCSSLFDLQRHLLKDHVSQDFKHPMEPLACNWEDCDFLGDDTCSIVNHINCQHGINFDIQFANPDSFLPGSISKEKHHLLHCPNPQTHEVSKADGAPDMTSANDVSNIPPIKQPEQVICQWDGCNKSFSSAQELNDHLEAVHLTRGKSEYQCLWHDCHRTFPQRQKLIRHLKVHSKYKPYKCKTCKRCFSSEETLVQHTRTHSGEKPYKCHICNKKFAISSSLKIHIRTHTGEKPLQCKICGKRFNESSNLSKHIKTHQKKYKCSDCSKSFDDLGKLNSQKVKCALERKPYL
Outline: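 Yeast transcription factors, full-length or as DNA-binding domains, were expressed with a GST tag using PURExpress in vitro transcription/translation. At about 100-200 nM they were applied to universal all-10-mer Agilent arrays, double-stranded by primer extension on fresh or once-stripped slides. Fluorescent anti-GST detected bound protein, and masliner normalised the scans. E-scores for ungapped eight-base words, pooled with reverse complements, came from the Universal PBM Analysis Suite.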

Sequence | PBM E-score
CGTTGAAC | -0.11
GGGTGGTA | 0.252
ACAGGCCT | -0.0521
CGTAACAC | -0.0261
ACACGTAC | -0.0848
AGAGGCGA | -0.298
CAACGGTC | 0.19
AGAGGCAA | -0.136
GAGCAATC | -0.187
GGAGGCCA | -0.112
GCCCCATA | -0.0925
ACCTTCTA | 0.304
GCTAGGAA | -0.00118
AGTGCTCG | -0.133
CCTACGCG | -0.0918
CCAACAGA | -0.0498
CAGAAAAA | 0.203
CACCTACC | 0.0874
ACACCGCT | -0.06
AGCGGGGA | -0.228
CGGGTTTA | 0.205
ATCTCGAG | -0.0636
GGGCTAAA | -0.0367
CATTCTAG | -0.0521
ACGACCAA | 0.117

Sequence | PBM E-score
CTCGTGAC | 0.0578
CCTGGCCG | -0.0362
GGACCTAC | -0.118
CACAGAGG | 0.113
ACACTTCG | -0.00099
CCTATGCA | -0.142
AAATTTCT | -0.0616
GCTTGGAA | -0.0685
AGGTAATG | 0.311
AATTTAAA | 0.0611
ATTAAATA | 0.195
ATACAGGC | -0.234
CCTGCAAC | 0.0235
ATTATCAG | -0.125
AGATGTAC | -0.0494
AGGGTAAC | 0.405
CGATGAGA | 0.0165
CCTATGTA | -0.0355
AGCAGGTA | 0.0269
GTATAGAC | 0.0398
CGGCGCTA | -0.213
CGCAAACG | 0.00749
CAAACCGG | 0.0523
ACCAAGGC | -0.0597
GCAGATGA | -0.0886

Sequence | PBM E-score
GCTCTGAA | -0.305
ATCCGGGA | -0.194
AGTGTCCG | -0.0651
ATAGTCAC | 0.116
AGGATATC | 0.0735
AAGGTCCC | 0.152
ACGGTAAC | 0.364
GCCACAAA | 0.221
ACGAATCT | -0.0209
CAGACCGA | -0.0449
CTTGATCA | 0.139
CGATTCAA | -0.161
CATGTGGA | -0.0576
ATCACACC | -0.01
GGGCTCAC | -0.245
ACCAGGTC | 0.126
AGACGAAC | 0.0722
CTCTACAC | -0.036
GGTCGGAA | 0.163
AGGACGTA | -0.169
ATGCACAG | -0.0553
CAGTCAAC | -0.218
AAAACAGG | 0.11
AGCCTGAG | -0.0458
CAGTTTTC | 0.00131

Sequence | PBM E-score
AGACAACC | 0.31
AATGTCAA | -0.0621
CATTAAGA | 0.0427
AGCAGCCC | -0.254
ACATAAAG | 0.0237
GGGCTCTA | -0.158
TATGCAGA | -0.0265
ACAGGTTC | -0.12
AAGTAGGA | -0.158
CGATACCG | 0.0831
CCCATCGA | 0.126
CGATATGA | -0.105
GTAAGTGA | 0.0969
ACTTGCTA | -0.115
CTCCTCCC | -0.2
AATTGCTA | 0.0693
CCTTACGC | -0.00775
ACCCCCGT | -0.206
CATATTAC | 0.117
AATTACTA | 0.058
AAGATACG | -0.147
CGCATAAG | -0.0381
AGTTGCTG | -0.12
CATACTCC | -0.0252
GCTGAAAC | -0.00548

Sequence | PBM E-score
ACGGGGCA | -0.143
AGACTCGC | -0.212
AATGCTGG | -0.0452
ATGAGTCG | -0.245
GACAGCTA | -0.278
AAACCAAG | 0.153
CCCGCGGA | -0.0476
ATTCTGGG | 0.0872
ATACCAAC | 0.18
AATTGCTG | 0.115
ACACGGCT | -0.0652
GGAGACGA | -0.032
CCCTTGCA | -0.00874
GCCATGAA | 0.195
CATACGCG | 0.0471
ATGCGGCC | -0.00897
GTCAGACA | -0.149
TAACCCCA | 0.424
GCATCGAC | -0.175
CGGCCACC | 0.194
CCAATGAC | 0.077
GATCGTTA | -0.237
ATCAGCTG | 0.035
CCAGGCGA | -0.217
CTTCCGAA | 0.0635

Sequence | PBM E-score
AGGACACA | 0.16
GATGACGA | -0.0906
TCCTAAAA | -0.0365
CACCAGAA | -0.00435
CGCCAGAA | -0.0069
CATTCCAA | -0.0693
TTAGGAAA | 0.102
ACCGGCCC | -0.0813
AAGCTCCA | -0.23
CTAGAAGA | -0.102
AGGAATAC | 0.0547
TGGGGCAA | -0.169
GCGGTCGA | 0.0793
CGGGTATC | 0.252
ATACACAG | 0.0559
GGGTTATA | 0.474
CATAAAGC | -0.159
ATATTTAG | 0.079
GATCCGGA | -0.144
ATAGCATC | -0.129
AATTTCGC | 0.0262
ATACGGCG | -0.0742
CAGGACAA | 0.198
GAAAATCA | -0.0693
CCGTACGA | -0.144

Sequence | PBM E-score
CCGGCCGC | -0.00756
CCCACGTA | -0.0742
AGTCATGC | -0.3
CTTCACCA | -0.176
ACACTCAG | 0.019
AGGAAATA | 0.128
ACAGTGTC | -0.0968
TGTCAAAA | 0.153
ATTTTGGA | 0.115
CACTTCCC | -0.0107
AATTGTAT | -0.157
AAAAAAGG | 0.28
CTGAAATC | -0.086
CTCTAGGA | -0.227
AGCCCTGA | -0.131
AGGAATCA | 0.116
CCTTTGCG | 0.158
AATTCTAT | -0.0635
GGCCCGTA | -0.0563
GAGTCGTA | -0.142
ACTGAATC | -0.0382
GTTGTGTA | 0.138
